# Results as given in PubChem BioAssay AID1345083 (National Center for Advancing Translational Sciences (NCATS), 2018).
# Among all 94,000 compounds or so, about 6,200 (6.6%) were called active. Inconclusive means that the source gave no clear call. Such entries were picked first, then a sample of the others. Calls follow the shape of the dose curve; as a rule, active = well fitted inhibition curve with a large enough effect; inconclusive = small, poorly fitted or top-dose-only effect; inactive = flat fitted curve, though single readings scatter. Where the call is inconclusive, the potency comes from a doubtful curve fit.
# Test: Cytotoxic Profiling in HEK 293 Cell Line of Diverse Libraries Using Quantitative High-Throughput Screening; also: nearly all actives have a fitted effect of over 60% in size
# Conditions: HEK 293 viability, ATP luminescence (CellTiter-Glo), 48-72 h; series mostly up to 115 µM
# Procedure, shortened: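 Pintool-delivered compounds were incubated with HEK 293 cells (250 cells/well) at 37 degree Celsius for 48 or 72 hr. ATP-dependent luminescence (CellTiter-Glo) then reported remaining viable cells.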
# Potency is read from the fitted curve at half-maximal effect; tags tell the direction and shape of the fitted curve.
row,SMILES,Potency
1,C[S+](=O)([O-])N1CCN(C(=O)c2cccc(-c3ccccn3)c2)CC1,inactive
2,O=C(Nc1ccc(C(F)(F)F)cc1)C1=NO[C@@H]2CN(CCc3ccccc3)C[C@H]12,"inconclusive: 100 µM [inhibitor, partial curve]"
3,Cc1nn(-c2ccc(C(C)C)cc2)c(C)c1[C@@H]1C=C[C@@H](NC(=S)NC2CCCCC2)C1,"inconclusive: 22.4 µM [inhibitor, full curve]"
4,COCC(=O)Nc1cccc(C(=O)N(Cc2ccsc2)CC(C)C)c1,"inconclusive: 89.1 µM [inhibitor, single point]"
5,C=CCNC(=O)CCc1c(C)nn(-c2ccc(F)cc2)c1Oc1ccc(F)cc1F,active: 35.5 µM
6,COc1ccc(CC(=O)NC2CCCc3c2[nH]c2ccccc32)cc1OC (stereo not drawn),active: 35.5 µM
7,CCOc1ccccc1CN1CCCOCCNC(=O)[C@@H]2CCCC[C@@H]21,"inconclusive: 56.2 µM [inhibitor, partial curve, poor fit]"
8,CC(C)c1nccn1CCCNC(=O)c1ccc(-c2ccc(F)cc2)nc1,"inconclusive: 89.1 µM [inhibitor, single point]"
9,CN1CC2(CCCN(CC3CC3)C2)c2cc(C(=O)Nc3ccn(C)n3)ccc21 (stereo not drawn),"inconclusive: 126 µM [inhibitor, single point]"
10,O=C(NCCc1ccccn1)C1CCN(Cc2ccccc2-c2cccnc2)CC1,inactive
11,CC[C@H]1CN(C(=O)NC2CCCCC2)CC[C@H]1CC(=O)Nc1ccccc1,"inconclusive: 126 µM [inhibitor, single point]"
12,COc1ccc(C(=O)NC2CCN(c3cc(-c4cccs4)[nH]n3)CC2)cc1,"inconclusive: 35.5 µM [inhibitor, partial curve, poor fit]"
13,CN1CCN(c2ccc(-c3noc([C@@H]4CCCN4CCCc4ccccc4)n3)cn2)CC1,"inconclusive: 39.8 µM [inhibitor, full curve, poor fit]"
14,O=C(Cc1ccc(F)cc1)NC1CCN(C(=O)c2ccc(-c3cccs3)cc2)CC1,"inconclusive: 50.1 µM [inhibitor, partial curve, poor fit]"
15,COCCNc1nc2c([S+](=O)([O-])c3ccc(Cl)cc3)nnn2c2ccccc12,inactive
16,Cc1nn2c(c1-c1ccccc1C(C)C)N(C(=O)CCc1cccnc1)CCC2,inactive
17,O=C(NCCc1ccc(F)cc1)C1CCCN(c2nccc(Nc3ccccc3F)n2)C1 (stereo not drawn),"inconclusive: 50.1 µM [inhibitor, partial curve, poor fit]"
18,COC(=O)c1cccc(-c2nc(C3CC(=O)N(c4ccc(Cl)cc4)C3)no2)c1 (stereo not drawn),"inconclusive: 89.1 µM [inhibitor, single point]"
19,Cc1cccc(-n2nc(C)c(CCC(=O)N(C)C(C)C)c2Oc2ccccc2C)c1,"inconclusive: 15.8 µM [inhibitor, full curve, poor fit]"
20,C=C(C)CN(C)C(=O)c1cc(CN2CCC(Cc3ccccc3)CC2)on1,active: 89.1 µM
21,O=C(Nc1ccccc1)N1C[C@@H](F)[C@@H](OCc2nc3ccc(F)cc3[nH]2)C1,inactive
22,CNCCN1C(=O)CC[C@H]2CN(C(=O)NCc3ccccc3)CC[C@H]21,inactive

row,SMILES,Potency
1,COc1cccc(-c2ccc(CN3CCCC(NC(=O)C4CC4)C3)cc2)c1 (stereo not drawn),active: 35.5 µM
2,CCCn1ncc(CN(C)CC2CCN(CCc3ccc(Cl)cc3)CC2)c1C,active: 22.4 µM
3,COCc1ccc(C(=O)N2CC[C@](C)(O)[C@H](C)C2)s1,"inconclusive: 89.1 µM [inhibitor, single point]"
4,CC(=O)N1CCC(N2CCOc3ccc(C(=O)NCc4ccc(C)cc4)cc3C2)CC1,inactive
5,COc1ccc(-c2ccc(C(=O)N(C)c3ccccc3)cc2)nn1,active: 22.4 µM
6,CCN1c2cc(C(=O)Nc3ccc(C(N)=O)cc3)ccc2C(=O)N2CCCCC21 (stereo not drawn),"inconclusive: 79.4 µM [inhibitor, single point]"
7,CC(C)Cn1c(=O)c(C(=O)N2CCN(C(=O)N(C)C)CC2)nc2cccnc21,inactive
8,COc1cccc(-c2cccc(C(=O)N3CCN(C(=O)c4cccc(Cl)c4)CC3)c2)c1,"inconclusive: 56.2 µM [inhibitor, partial curve, poor fit]"
9,Cc1nc2c(c(-c3ccc(O)cc3)n1)CN(C(=O)c1ccc(C(F)(F)F)cc1)CCC2,inactive
10,Cn1cccc1CN1CC(F)(F)C[C@H]1c1nnc(C2CC2)o1,inactive
11,Cn1ncc2c(C(=O)NCC(F)F)cc(-c3ccccc3F)nc21,inactive
12,O=C(C1CCCN1C(=O)c1ccccc1Cl)N1CCC(c2ccccc2)CC1 (stereo not drawn),"inconclusive: 50.1 µM [inhibitor, partial curve, poor fit]"
13,COc1ccc(CNC(=O)CC[C@H]2CNC(=O)[C@@H]3[C@@H](CCN3Cc3ccc(C)cc3)N2C)cc1,"inconclusive: 89.1 µM [inhibitor, single point]"
14,N#Cc1ccc(CN2CCCCC23Cc2ccccc2CNC3=O)cc1 (stereo not drawn),"inconclusive: 50.1 µM [inhibitor, partial curve]"
15,COc1cccc(-c2cn3cc(C(=O)N(C)C)nc3s2)c1,"inconclusive: 100 µM [inhibitor, partial curve, poor fit]"
16,COc1ccc(-c2noc([C@@H]3CCCN3C(=O)c3ccc(Cl)cc3)n2)cc1OC,"inconclusive: 56.2 µM [inhibitor, partial curve, poor fit]"
17,COc1ccc(NC(=O)C2(Cc3ccccc3)CCCCC(=O)N2)cc1F (stereo not drawn),inactive
18,Cc1ccc(-c2cccc(CN3CCCC(NC(=O)NC(C)C)C3)c2)cc1Cl (stereo not drawn),inactive
19,COc1cccc(-c2noc(COC(=O)C3=CN(C)S(=O)(=O)N=C3C)n2)c1,"inconclusive: 44.7 µM [inhibitor, partial curve]"
20,COc1ccc(-c2cc(N3CCCC(NC(=O)c4ccc5cc[nH]c5c4)C3)n[nH]2)cc1 (stereo not drawn),"inconclusive: 50.1 µM [inhibitor, partial curve, poor fit]"
21,COc1ccc(-c2cccc(C(=O)N3CCC(NC(=O)c4ccc(Cl)cc4)CC3)c2)nn1,"inconclusive: 44.7 µM [inhibitor, partial curve, poor fit]"
